Among all 48,000 compounds or so, about 550 (1.1%) were called active. About 4% were inconclusive and are not listed. Cut-off read from the data, not from the text of the source: active = potency below about 15 µM; inconclusive = mostly about 16 µM to 33 µM; inactive = weaker than that. The list shows a part of the results.
The compounds below were run against Lysosomal acid glucosylceramidase (Homo sapiens) (UniProt P04062) (assay: Glucocerebrosidase). Conditions: purified enzyme, resorufin glucoside fluorescence (screen aimed at inhibitors), 20 min; series mostly up to 77 µM.
Chain of UniProt P04062 (P04062 whole entry, looked up): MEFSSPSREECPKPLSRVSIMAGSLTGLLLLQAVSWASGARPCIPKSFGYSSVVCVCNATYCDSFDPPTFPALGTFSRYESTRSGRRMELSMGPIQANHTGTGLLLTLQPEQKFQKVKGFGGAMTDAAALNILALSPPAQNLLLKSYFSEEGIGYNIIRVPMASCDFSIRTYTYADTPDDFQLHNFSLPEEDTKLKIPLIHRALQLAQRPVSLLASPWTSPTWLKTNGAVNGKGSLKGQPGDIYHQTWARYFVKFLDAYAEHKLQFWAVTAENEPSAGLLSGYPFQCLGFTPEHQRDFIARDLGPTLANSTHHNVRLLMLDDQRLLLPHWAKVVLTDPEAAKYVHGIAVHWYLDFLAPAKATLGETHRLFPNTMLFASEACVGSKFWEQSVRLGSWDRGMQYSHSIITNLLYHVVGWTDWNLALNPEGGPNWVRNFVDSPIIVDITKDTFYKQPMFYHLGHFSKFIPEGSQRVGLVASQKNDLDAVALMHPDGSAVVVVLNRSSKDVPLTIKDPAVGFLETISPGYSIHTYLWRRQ
Procedure, shortened: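 Compounds titrated against 0.2 nM normal enzyme, 30 uM resorufin beta-D-glucopyranoside substrate, citrate/phosphate buffer with taurocholate and tween-20, pH 5.9. Reaction ran 20 min at room temperature; fluorescence (Ex 548/Em 600) gave AC50.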
In the case of `CCOC(=O)c1[nH]c(C)c(C(=O)Nc2ccc(C)c(F)c2)c1C`, the Potency was inactive: > 76.9 µM.
In the case of `CN1CCN(c2ccc(Cl)cc2NS(=O)(=O)c2ccccc2Cl)CC1`, the Potency was active: 13 µM.
`O=S(=O)(c1ccccc1)N1CCN(CC(O)COc2ccc3c(c2)CCC3)CC1` (stereo not drawn) was tested, and the Potency was inactive: > 76.9 µM.
In the case of `O=C1OCCC1Sc1ncnc2sccc12` (stereo not drawn), the Potency was inactive: > 76.9 µM.
In the case of `CC(=O)c1cccc(NC(=O)C=C(C)C)c1`, the Potency was inactive: > 76.9 µM.
`c1ccc(CCn2nnnc2C(c2cccs2)N2CCOCC2)cc1` (stereo not drawn) was tested, and the Potency was inactive: > 76.9 µM.
With `CCNc1nc(SC(C(C)=O)C(C)=O)nc(N(C)C)n1` the Potency was inactive: > 76.9 µM.
`COc1ccccc1C(=O)NCCN1CCN(C(=O)c2ccccc2OC)CC1` was tested, and the Potency was inactive: > 76.9 µM.
`c1cc(-n2cnnn2)ccc1NC1=NCCC1` was tested, and the Potency was inactive: > 76.9 µM.
With `Cc1nc(N2CCOCC2)[nH]c(=O)c1CCC(C)C` the Potency was inactive: > 76.9 µM.
`CCOC(=O)c1ccc2nc(NC(=O)c3cccs3)sc2c1` was tested, and the Potency was inactive: > 76.9 µM.
For `N#Cc1cccc(NC(=O)COc2ccc(-n3ccnc3)cc2)c1`, the Potency was inactive: > 76.9 µM.
In the case of `O=C(CCCN1C(=O)c2ccccc2C1=O)Oc1ccc(F)cc1`, the Potency was inactive: > 76.9 µM.
`O=C(CSc1nnc(-c2ccccc2O)o1)Oc1ccc(OCc2ccccc2)cc1` was tested, and the Potency was inactive: > 76.9 µM.
`Cn1nc(C(=O)NC2CCCCC2)c2ccccc2c1=O` was tested, and the Potency was inactive: > 76.9 µM.
`Cc1[nH]c2ccccc2c1C1=CN2CCS(=O)(=O)N=C2S1` was tested, and the Potency was inactive: > 76.9 µM.
`CCOC(=O)C1CCCN(C(=O)COC(=O)C2=COCCO2)C1` (stereo not drawn) was tested, and the Potency was inactive: > 76.9 µM.
With `COc1ccc(CC(NC(C)=O)C(=O)NC2CCN(C(=O)NCc3ccccc3)CC2)cc1` (stereo not drawn) the Potency was inactive: > 76.9 µM.
In the case of `COC(=O)Cn1nc(-c2ccccc2)c2ccccc2c1=O`, the Potency was inactive: > 76.9 µM.
For `CC(C)(C)n1ncc2c(=O)n(CC(=O)N3CCN(c4ccccc4)CC3)cnc21`, the Potency was inactive: > 76.9 µM.
For `CN(C)c1nc(N)nc(CSc2nnnn2C)n1`, the Potency was inactive: > 76.9 µM.
For `COc1ccccc1N1CCN(C(=O)c2cc(-c3ccc(Cl)c(Cl)c3)on2)CC1`, the Potency was inactive: > 76.9 µM.
With `FC(F)(F)c1cc(-c2cccs2)nc(NCc2ccco2)n1` the Potency was inactive: > 76.9 µM.
With `CN(C)c1ccc(-c2nn3c(-c4ccccc4Cl)nnc3s2)cc1` the Potency was inactive: > 76.9 µM.
For `O=c1[nH]c(-c2ccccc2O)nc2c1CCCC2`, the Potency was active: 7.46 µM.
For `O=C(O)c1cn[nH]c1-n1cnnn1`, the Potency was inactive: > 76.9 µM.
`Cc1[nH]c2ccc(Br)cc2c(=O)c1CN1CCOCC1` was tested, and the Potency was inactive: > 76.9 µM.
For `Cn1c(C(=O)OCC(=O)NCc2cccs2)cc2sccc21`, the Potency was inactive: > 76.9 µM.
In the case of `Cc1cccc2cc(C(c3nnnn3CC3CCCO3)N3CCc4ccccc4C3)c(=O)[nH]c12` (stereo not drawn), the Potency was inactive: > 76.9 µM.
For `COc1ccc(N2C(=O)CCC(C(=O)NCc3ccccn3)C2c2ccc(OC)c(OC)c2)cc1` (stereo not drawn), the Potency was inactive: > 76.9 µM.
`CCOC(=O)c1c(C)n(C)c2ccc(O)c(CN3CCN(C)CC3)c12` was tested, and the Potency was inactive: > 76.9 µM.
For `Cc1ccc(-c2nn3c(C)nnc3s2)cc1NC(=O)c1cccs1`, the Potency was inactive: > 76.9 µM.
In the case of `CCCC(c1nnnn1CC(=O)OCC)N(Cc1cc2ccc(C)cc2[nH]c1=O)C1CCCC1` (stereo not drawn), the Potency was inactive: > 76.9 µM.
For `O=C(O)CCC(=O)Nc1ccccc1C(=O)NC1CCCCC1`, the Potency was inactive: > 76.9 µM.
With `COC(=O)c1cn(C(=O)c2cccs2)c2ccccc12` the Potency was inactive: > 76.9 µM.
`COC(=O)c1oc2ccc(Cl)cc2c1NC(C)=O` was tested, and the Potency was inactive: > 76.9 µM.
With `COc1ccccc1-c1cc(N)n[nH]1` the Potency was inactive: > 76.9 µM.
For `COCC(=O)c1[nH]c2ccccc2c1C`, the Potency was inactive: > 76.9 µM.
In the case of `Cc1nc2ccc(NC3=NCCCCC3)cc2s1`, the Potency was inactive: > 76.9 µM.
In the case of `COc1cc(Br)cc(-c2nc3c(c(=O)[nH]c(=O)n3Cc3ccccc3)n2C)c1O`, the Potency was inactive: > 76.9 µM.
`CCN(CC)S(=O)(=O)c1ccc(-c2nnc(SCC(=O)N3CCc4ccccc43)o2)cc1` was tested, and the Potency was inactive: > 76.9 µM.
In the case of `c1ccc(-c2ccc(OCCCn3cncn3)cc2)cc1`, the Potency was inactive: > 76.9 µM.
For `CCS(=O)(=O)Nc1ccc(-c2nnc(SCC(=O)c3cccc(OC)c3)o2)cc1`, the Potency was active: 10.7 µM.
With `COc1ccc(C(=O)O)cc1S(=O)(=O)N(C)CCc1cccnc1` the Potency was inactive: > 76.9 µM.
`O=C(NCC1CCCO1)C1CCN(C(=O)c2ccc(Cl)cc2)CC1` (stereo not drawn) was tested, and the Potency was inactive: > 76.9 µM.
In the case of `CCC1CCCCN1C(=O)c1cc(-c2ccc(Cl)c(Cl)c2)on1` (stereo not drawn), the Potency was inactive: > 76.9 µM.
With `O=C(COC(=O)CCC(=O)c1ccc(Cl)cc1)NCC1CCCO1` (stereo not drawn) the Potency was inactive: > 76.9 µM.
`Nc1ccc(NC(=O)c2cccs2)c(Cl)c1` was tested, and the Potency was inactive: > 76.9 µM.
For `Cc1nnc(Sc2nc3ccccc3o2)c2ccccc12`, the Potency was inactive: > 76.9 µM.
For `CC(C)N(CCNC(=O)C1CCN(S(=O)(=O)N2CCOCC2)CC1)Cc1ccccc1`, the Potency was inactive: > 76.9 µM.
With `CCSc1ncnc2c1oc1ccccc12` the Potency was inactive: > 76.9 µM.
With `O=C(COC(=O)c1ccncc1)NCc1ccccc1` the Potency was inactive: > 76.9 µM.
With `Cc1nc(N2CCCC2)c2ccsc2n1` the Potency was inactive: > 76.9 µM.
With `Cc1nc2ccc(N)cc2c(=O)n1Cc1ccc(Cl)cc1` the Potency was inactive: > 76.9 µM.
With `CCOC(=O)C1CCCN(C(=O)C2CCC(CNS(=O)(=O)c3ccc(NC(C)=O)cc3)CC2)C1` (stereo not drawn) the Potency was inactive: > 76.9 µM.
With `COC(=O)c1cc(OC)c(OC)cc1NC(=O)C1CCC(=O)N1S(=O)(=O)c1ccc(C)cc1` (stereo not drawn) the Potency was inactive: > 76.9 µM.
With `CN1C(=O)CSc2ccc(NC(=O)NCc3ccco3)cc21` the Potency was inactive: > 76.9 µM.
With `CCc1nc(NCc2ccccn2)c2oc3ccccc3c2n1` the Potency was inactive: > 76.9 µM.
For `CCNC(=O)CC1SC(=Nc2ccccc2C)N(C)C1=O` (stereo not drawn), the Potency was inactive: > 76.9 µM.
For `CCOc1ccc(OCCN2C(=O)NC3(CCCc4ccccc43)C2=O)cc1` (stereo not drawn), the Potency was “inactive”.
In the case of `CCCCn1cnc2c(cnn2-c2ccc(Cl)cc2)c1=O`, the Potency was inactive: > 76.9 µM.
For `O=C(CSCc1ccccn1)Nc1ccccc1`, the Potency was inactive: > 76.9 µM.
With `CC(Oc1ccc2c(-c3ccccc3)cc(=O)oc2c1)C(=O)O` (stereo not drawn) the Potency was inactive: > 76.9 µM.
`O=C(Nc1cccc(Cl)c1N1CCCCC1)c1ccc2c(c1)OCCO2` was tested, and the Potency was inactive: > 76.9 µM.
With `O=S1(=O)CC(O)C(NCc2cccnc2)C1` (stereo not drawn) the Potency was inactive: > 76.9 µM.
With `Cc1ccc(C(=O)N2CCN(c3ccccc3)CC2)cc1S(=O)(=O)N1CCCC1` the Potency was inactive: > 76.9 µM.
In the case of `CCn1c(SCc2cc(=O)[nH]c3ccccc23)nc2c1c(=O)n(C)c(=O)n2C`, the Potency was inactive: > 76.9 µM.
With `Cc1ccc(Nc2nc(N)nc(CSc3nccn3C)n2)cc1` the Potency was inactive: > 76.9 µM.
With `COc1ccc(C(CNC(=O)Cn2[nH]c(=O)c3ccccc3c2=O)N2CCCC2)cc1` (stereo not drawn) the Potency was inactive: > 76.9 µM.
`O=C(Oc1cccc(-n2cnnn2)c1)C1CCCCC1` was tested, and the Potency was inactive: > 76.9 µM.
With `COc1cc(NC(=O)c2noc3c2CCCC3)c(OC)cc1Cl` the Potency was inactive: > 76.9 µM.
In the case of `O=C(OCN1C(=O)c2ccccc2C1=O)c1ccccc1`, the Potency was inactive: > 76.9 µM.
`O=C(COc1ccc(Cl)cc1Cl)N(Cc1ccco1)C1CCS(=O)(=O)C1` (stereo not drawn) was tested, and the Potency was inactive: > 76.9 µM.
For `CCCCNC(=O)CCCn1c(=O)c2ccccc2n(CC(=O)NCCC2=CCCCC2)c1=O`, the Potency was inactive: > 76.9 µM.
For `Cc1ccc(/C(C#N)=C\c2cn(C)c3ccccc23)cc1`, the Potency was inactive: > 76.9 µM.
With `CCCCn1c(SCC(=O)N2CCN(c3ccccc3)CC2)nc2ccsc2c1=O` the Potency was inactive: > 76.9 µM.
For `CC(C)NC(=O)c1c(O)c2ccccc2[nH]c1=O`, the Potency was inactive: > 76.9 µM.
For `COc1ccc(OCc2cccc(C(=O)N3CCCC3)c2)cc1`, the Potency was inactive: > 76.9 µM.
For `CCn1c2ccccc2c2nnc(SCC(=O)NC(C(=O)OC)C(C)C)nc21` (stereo not drawn), the Potency was inactive: > 76.9 µM.
For `Cc1ccc(-n2c(SCC(=O)Nc3ccc4c(c3)OCCO4)nnc2-c2ccco2)cc1`, the Potency was inactive: > 76.9 µM.
With `O=C(C1CC2CCC1C2)N1CCN(Cc2ccc3c(c2)OCO3)CC1` (stereo not drawn) the Potency was inactive: > 76.9 µM.
In the case of `COC(=O)c1[nH]c2c(c1C)C(=O)CC(c1ccccc1)C2` (stereo not drawn), the Potency was inactive: > 76.9 µM.
For `Cc1cc2oc(=O)c3c(c2cc1OCc1nn[nH]n1)CCCC3`, the Potency was inactive: > 76.9 µM.
`Cc1c(C2OC(=O)C3(CCCCC3)C(=O)C2(C)C)c(=O)n(-c2ccccc2)n1C` (stereo not drawn) was tested, and the Potency was inactive: > 76.9 µM.
For `COc1ccc(N(C)C(=O)Nc2ccc3c(c2)nnn3C)cc1`, the Potency was inactive: > 76.9 µM.
In the case of `CCOC(=O)c1ccc(N2C(=O)C(O)=C(C(C)=O)C2c2ccccn2)cc1` (stereo not drawn), the Potency was inactive: > 76.9 µM.
For `CC(C)(C)NC(=O)CSc1n[nH]c(=O)n1-c1ccccc1`, the Potency was inactive: > 76.9 µM.
For `Cc1cc(=O)n2nc(-c3ccccc3)sc2n1`, the Potency was inactive: > 76.9 µM.
In the case of `OC(CNCC1COc2ccccc2O1)COCc1cccs1` (stereo not drawn), the Potency was inactive: > 76.9 µM.
`Cc1nnc(C)n1/N=C/c1cccc(Oc2ccccc2)c1` was tested, and the Potency was inactive: > 76.9 µM.
In the case of `CC(C)CC(NC(N)=O)C(=O)OCC(=O)NC(=O)NC1CCCC1` (stereo not drawn), the Potency was inactive: > 76.9 µM.
`COC(=O)Nc1ccc2c(c1)N(C(=O)CCN1CCOCC1)c1ccccc1S2` was tested, and the Potency was “inactive”.
`CN(C)c1ccc(-c2noc(C3CCN(S(=O)(=O)c4ccc(C(=O)O)cc4)CC3)n2)cc1` was tested, and the Potency was inactive: > 76.9 µM.
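Note: the screen sought inhibitors.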
Potency is the fitted concentration of half-maximal effect.
